# Reference: the supplement of paper PMC8728848
# This is one part of the list.
# B1: Siglec-9 (Homo sapiens), Q9Y336 (protein)
# chain: MLLLLLPLLWGRERAEGQTSKLLTMQSSVTVQEGLCVHVPCSFSYPSHGWIYPGPVVHGYWFREGANTDQDAPVATNNPARAVWEETRDRFHLLGDPHTKNCTLSIRDARRSDAGRYFFRMEKGSIKWNYKHHRLSVNVTALTHRPNILIPGTLESGCPQNLTCSVPWACEQGTPPMISWIGTSVSPLDPSTTRSSVLTLIPQPQDHGTSLTCQVTFPGASVTTNKTVHLNVSYPPQNLTMTVFQGDGTVSTVLGNGSSLSLPEGQSLRLVCAVDAVDSNPPARLSLSWRGLTLCPSQPSNPGVLELPWVHLRDAAEFTCRAQNPLGSQQVYLNVSLQSKATSGVTQGVVGGAGATALVFLSFCVIFVVVRSCRKKSARPAAGVGDTGIEDANAVRGSASQGPLTEPWAEDSPPDQPPPASARSSVGEGELQYASLSFQMVKPWDSRGQEATDTEYSEIKIHR
# Tests used:
# Test in all cases: glycan array binding signal (z-score within array); higher = stronger binding
# Details in all cases: glycan notation: IUPAC condensed, linker removed
# Gal(a1-3)GalNAc = biological target: Gal(a1-3)GalNAc
# Outline: (§1)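 Columns mapping to the same glycan were averaged after glycan names were converted to IUPAC-condensed notation. The data come from 3228 arrays in the Consortium for Functional Glycomics database, limited to those with an available protein sequence. Binding is reported as a within-array Z-score averaged across arrays of one protein sequence and across linkers.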
# [1] = biological target: Gal(a1-3)[Gal(a1-4)]Gal(b1-4)GlcNAc
# Outline: as §1
# [2] = biological target: Gal(a1-4)Gal(b1-3)GlcNAc(b1-2)Man(a1-3)[Gal(a1-4)Gal(b1-3)GlcNAc(b1-2)Man(a1-6)]Man(b1-4)GlcNAc(b1-4)GlcNAc
# Outline: as §1
# Gal(a1-4)Gal(b1-4)Glc = biological target: Gal(a1-4)Gal(b1-4)Glc
# Outline: as §1
# Gal(a1-4)Gal(b1-4)GlcNAc = biological target: Gal(a1-4)Gal(b1-4)GlcNAc
# Outline: as §1
# [3] = biological target: Gal(a1-4)Gal(b1-4)GlcNAc(b1-2)Man(a1-3)[Gal(a1-4)Gal(b1-4)GlcNAc(b1-2)Man(a1-6)]Man(b1-4)GlcNAc(b1-4)GlcNAc
# Outline: as §1
# [4] = biological target: Gal(a1-4)Gal(b1-4)GlcNAc(b1-3)Gal(b1-4)Glc
# Outline: as §1
# Gal(a1-4)GlcNAc = biological target: Gal(a1-4)GlcNAc
# Outline: as §1
# Gal(a1-6)Glc = biological target: Gal(a1-6)Glc
# Outline: as §1
# Gal(b1-2)Gal = biological target: Gal(b1-2)Gal
# Outline: as §1
# Gal(b1-3)Gal = biological target: Gal(b1-3)Gal
# Outline: as §1
# Gal(b1-3)Gal(b1-4)GlcNAc = biological target: Gal(b1-3)Gal(b1-4)GlcNAc
# Outline: as §1
# Gal(b1-3)GalNAc = biological target: Gal(b1-3)GalNAc
# Outline: as §1
# [5] = biological target: Gal(b1-3)GalNAc(a1-3)[Fuc(a1-2)]Gal(b1-4)Glc
# Outline: as §1
# [6] = biological target: Gal(b1-3)GalNAc(a1-3)[Fuc(a1-2)]Gal(b1-4)GlcNAc
# Outline: as §1
# Gal(b1-3)GalNAc(b1-3)Gal = biological target: Gal(b1-3)GalNAc(b1-3)Gal
# Outline: as §1
# [7] = biological target: Gal(b1-3)GalNAc(b1-3)Gal(a1-4)Gal(b1-4)Glc
# Outline: as §1
# [8] = biological target: Gal(b1-3)GalNAc(b1-4)Gal(b1-4)Glc
# Outline: as §1
# [9] = biological target: Gal(b1-3)GalNAc(b1-4)[Neu5Ac(a2-3)]Gal(b1-4)Glc
# Outline: as §1
# Gal(b1-3)GlcNAc = biological target: Gal(b1-3)GlcNAc
# Outline: as §1
# [10] = biological target: Gal(b1-3)GlcNAc(a1-3)Gal(b1-4)GlcNAc
# Outline: as §1
# [11] = biological target: Gal(b1-3)GlcNAc(a1-6)Gal(b1-4)GlcNAc
# Outline: as §1
# Gal(b1-3)GlcNAc(b1-2)Man = biological target: Gal(b1-3)GlcNAc(b1-2)Man
# Outline: as §1
# [12] = biological target: Gal(b1-3)GlcNAc(b1-2)Man(a1-3)[Gal(b1-3)GlcNAc(b1-2)Man(a1-6)]Man(b1-4)GlcNAc(b1-4)GlcNAc
# Outline: as §1
# [13] = biological target: Gal(b1-3)GlcNAc(b1-2)Man(a1-3)[Gal(b1-3)GlcNAc(b1-2)Man(a1-6)]Man(b1-4)GlcNAc(b1-4)[Fuc(a1-6)]GlcNAc
# Outline: as §1
# [14] = biological target: Gal(b1-3)GlcNAc(b1-2)Man(a1-3)[GlcNAc(b1-4)][Gal(b1-3)GlcNAc(b1-2)Man(a1-6)]Man(b1-4)GlcNAc(b1-4)GlcNAc
# Outline: as §1
# [15] = biological target: Gal(b1-3)GlcNAc(b1-2)[Gal(b1-3)GlcNAc(b1-6)]Man(a1-6)[Gal(b1-3)GlcNAc(b1-2)Man(a1-3)]Man(b1-4)GlcNAc(b1-4)GlcNAc
# Outline: as §1
# [16] = biological target: Gal(b1-3)GlcNAc(b1-3)Gal(b1-3)GlcNAc
# Outline: as §1
# [17] = biological target: Gal(b1-3)GlcNAc(b1-3)Gal(b1-4)Glc
# Outline: as §1
# [18] = biological target: Gal(b1-3)GlcNAc(b1-3)Gal(b1-4)GlcNAc
# Outline: as §1
# [19] = biological target: Gal(b1-3)GlcNAc(b1-3)Gal(b1-4)GlcNAc(b1-2)Man(a1-3)[Gal(b1-3)GlcNAc(b1-3)Gal(b1-4)GlcNAc(b1-2)Man(a1-6)]Man(b1-4)GlcNAc(b1-4)GlcNAc
# Outline: as §1
# [20] = biological target: Gal(b1-3)GlcNAc(b1-3)Gal(b1-4)GlcNAc(b1-2)[Gal(b1-3)GlcNAc(b1-3)Gal(b1-4)GlcNAc(b1-6)]Man(a1-6)[Gal(b1-3)GlcNAc(b1-3)Gal(b1-4)GlcNAc(b1-2)Man(a1-3)]Man(b1-4)GlcNAc(b1-4)[Fuc(a1-6)]GlcNAc
# Outline: as §1
# [21] = biological target: Gal(b1-3)GlcNAc(b1-3)Gal(b1-4)GlcNAc(b1-3)Gal(b1-4)GlcNAc(b1-2)[Gal(b1-3)GlcNAc(b1-3)Gal(b1-4)GlcNAc(b1-3)Gal(b1-4)GlcNAc(b1-6)]Man(a1-6)[Gal(b1-3)GlcNAc(b1-3)Gal(b1-4)GlcNAc(b1-3)Gal(b1-4)GlcNAc(b1-2)Man(a1-3)]Man(b1-4)GlcNAc(b1-4)[Fuc(a1-6)]GlcNAc
# Outline: as §1
# [22] = biological target: Gal(b1-3)GlcNAc(b1-3)Gal(b1-4)GlcNAc(b1-6)[Gal(b1-3)GlcNAc(b1-3)]Gal(b1-4)Glc
# Outline: as §1
# [23] = biological target: Gal(b1-3)GlcNAc(b1-3)Gal(b1-4)[Fuc(a1-3)]GlcNAc
# Outline: as §1
# [24] = biological target: Gal(b1-3)GlcNAc(b1-3)Gal(b1-4)[Fuc(a1-3)]GlcNAc(b1-6)[Gal(b1-3)GlcNAc(b1-3)]Gal(b1-4)Glc
# Outline: as §1
# [25] = biological target: Gal(b1-3)GlcNAc(b1-3)GalNAc
# Outline: as §1
# [26] = biological target: Gal(b1-3)GlcNAc(b1-6)Gal(b1-4)GlcNAc
# Outline: as §1
binder,measurement,setting,value
B1,glycan array binding signal (z-score),Gal(a1-3)GalNAc,-0.192
same,glycan array binding signal (z-score),[1],-0.042
same,glycan array binding signal (z-score),[2],-0.185
same,glycan array binding signal (z-score),Gal(a1-4)Gal(b1-4)Glc,-0.183
same,glycan array binding signal (z-score),Gal(a1-4)Gal(b1-4)GlcNAc,-0.198
same,glycan array binding signal (z-score),[3],0.13
same,glycan array binding signal (z-score),[4],-0.242
same,glycan array binding signal (z-score),Gal(a1-4)GlcNAc,-0.162
same,glycan array binding signal (z-score),Gal(a1-6)Glc,-0.251
same,glycan array binding signal (z-score),Gal(b1-2)Gal,-0.096
same,glycan array binding signal (z-score),Gal(b1-3)Gal,-0.096
same,glycan array binding signal (z-score),Gal(b1-3)Gal(b1-4)GlcNAc,-0.25
same,glycan array binding signal (z-score),Gal(b1-3)GalNAc,-0.217
same,glycan array binding signal (z-score),[5],-0.434
same,glycan array binding signal (z-score),[6],-0.07
same,glycan array binding signal (z-score),Gal(b1-3)GalNAc(b1-3)Gal,-0.078
same,glycan array binding signal (z-score),[7],-0.101
same,glycan array binding signal (z-score),[8],-0.369
same,glycan array binding signal (z-score),[9],-0.094
same,glycan array binding signal (z-score),Gal(b1-3)GlcNAc,-0.23
same,glycan array binding signal (z-score),[10],0.042
same,glycan array binding signal (z-score),[11],-0.175
same,glycan array binding signal (z-score),Gal(b1-3)GlcNAc(b1-2)Man,-0.087
same,glycan array binding signal (z-score),[12],-0.172
same,glycan array binding signal (z-score),[13],0.046
same,glycan array binding signal (z-score),[14],-0.183
same,glycan array binding signal (z-score),[15],-0.043
same,glycan array binding signal (z-score),[16],-0.277
same,glycan array binding signal (z-score),[17],-0.104
same,glycan array binding signal (z-score),[18],-0.334
same,glycan array binding signal (z-score),[19],-0.258
same,glycan array binding signal (z-score),[20],0.095
same,glycan array binding signal (z-score),[21],0.579
same,glycan array binding signal (z-score),[22],-0.039
same,glycan array binding signal (z-score),[23],-0.296
same,glycan array binding signal (z-score),[24],-0.134
same,glycan array binding signal (z-score),[25],-0.341
same,glycan array binding signal (z-score),[26],-0.183
